# Reference: PubChem BioAssay AID1240 (Sanford-Burnham Center for Chemical Genomics, 2008)
# Where “and” joins values, the source holds several entries; their conditions need not be identical. Equal values may be shown once. In all, about 50,000 compounds went through this assay and about 800 (1.6%) showed an effect of 50% or more. This is one part of the list.
# Biological target: Bcl-2-like protein 10 (Homo sapiens) (UniProt Q9HD36)
# Test: TR3 peptide-Bcl-B binding displacers, biochemical primary FP assay, phenotype converters (AID 1240);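 note: 0% = Bcl-B with tracer peptide and DMSO and 100% = tracer peptide lacking Bcl-B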
# Settings: GST-Bcl-B / FITC-TR3 peptide fluorescence polarization; stronger effect = higher value; compound at 3.75 mg/L
# Chain of UniProt Q9HD36 (Q9HD36 whole entry, looked up): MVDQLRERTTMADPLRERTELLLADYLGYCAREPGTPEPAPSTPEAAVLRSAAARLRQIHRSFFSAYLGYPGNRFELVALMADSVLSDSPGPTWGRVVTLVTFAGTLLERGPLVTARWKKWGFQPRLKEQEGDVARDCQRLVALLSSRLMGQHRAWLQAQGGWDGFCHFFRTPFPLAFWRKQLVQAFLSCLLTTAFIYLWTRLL
row,SMILES,displacement
1,O=C(Cc1ccccc1)N1CCN(Cc2ccco2)CC1,-7.4%
2,O=c1c2ccccc2nc(-c2ccccc2F)n1-c1cccc(Cl)c1,-2.3%
3,O=c1c2ccccc2nc(-c2ccc(Cl)cc2Cl)n1-c1ccc(Br)cn1,-24.1%
4,CCN(CC)C(=O)c1ccc(NC(=O)C(F)(F)F)cc1,-10.4%
5,O=[N+]([O-])c1ccc(N2CCNCC2)cc1NCCc1ccccc1,12.1%
6,COc1ccccc1CCNCc1ccc(Cl)cc1,-3.5%
7,O=c1oc2ccccc2c2c1C(c1ccc(Br)cc1)c1c(c3ccccc3oc1=O)O2,13.7%
8,Cc1ccc(-n2c(-c3ccncc3)nc3ccccc3c2=O)cc1,2%
9,O=C1NC(=S)NC(=O)C1=Cc1ccc(-c2cc(Cl)c([N+](=O)[O-])cc2Cl)o1,19.3%
10,O=[N+]([O-])N=C1NCN(c2ccc(Cl)cc2)CN1,-1.2%
11,O=C(NC(Oc1ccccc1Br)C(Cl)(Cl)Cl)c1ccco1 (stereo not drawn),14.1%
12,O=C(COc1ccccc1)N1CCN(Cc2ccccc2)CC1,7.1%
13,CCCCCn1c(=O)c(C(=O)Nc2nc(C)cs2)c(O)c2ccccc21,5.2%
14,O=C1NC(=S)N(c2ccc(Cl)cc2)C(=O)/C1=C/c1ccc(-c2ccccc2C(=O)O)o1,1.9%
15,CC1(C)C2([N+](=O)[O-])CNCC1([N+](=O)[O-])CNC2,-0.3%
16,Cc1ccc(C(=O)C(C)(C)NO)cc1,14.4%
17,Cc1cc(OCC(=O)c2ccccc2)c2c3c(c(=O)oc2c1)CCC3,9.7%
18,CC(=O)OC1CCC2(C)C(=CCC3C4C/C(=C\c5ccc([N+](=O)[O-])cc5)C(=O)C4(C)CCC32)C1 (stereo not drawn),2.6%
19,CN(C)c1ccc(/C=N/NC(=O)C(=O)NN/C(N)=N\[N+](=O)[O-])cc1,-7.8%
20,Cc1cc(C)nc(NS(=O)(=O)c2ccc(N=Cc3c(O)n(C)c(=O)n(C)c3=O)cc2)n1,15%
21,COc1ccc(/C=C2\CC3C4CC=C5CC(O)CCC5(C)C4CCC3(C)C2O)cc1 (stereo not drawn),-6.9%
22,CCC1(CC)C(=O)N(C)C(=O)N(C)C1=O,11.5%
23,COP(=S)(OC)SCN1C(=O)c2ccccc2C1=O,10.9%
24,O=Cc1cn(Cc2ccccc2Cl)c2ccccc12,-1%
25,Cc1nc2ccccc2c(=O)n1-c1ccncc1,16.4%

row,SMILES,displacement
1,CC(C)OC1N/C(=N\[N+](=O)[O-])N(C)C1OC(C)C (stereo not drawn),0.8%
2,O=c1c2ccccc2nc(/C=C/c2cc(Br)ccc2O)n1-c1cccc([N+](=O)[O-])c1,-14.1%
3,CCCC(=O)c1ccc(N2CCNCC2)c(F)c1,-11%
4,CCc1ccc(CN2CCN(C(=O)COc3ccc4ccccc4c3)CC2)cc1,-6.3%
5,COC(=O)c1[nH]cnc1C(=O)Nc1ccc(Cl)cc1C(=O)c1ccccc1,12.7% and 8%
6,C=C(C)c1cccc(C(C)(C)NC(=O)NC2CN3CCC2CC3)c1 (stereo not drawn),-0.9%
7,CN1C(=O)NC(=O)/C(=C\c2ccc(C(=O)O)cc2)C1=O,1.8%
8,Cc1c(C=O)c2ccccc2n1Cc1ccc(Cl)cc1,-3.4%
9,O=c1c2ccccc2nc(-c2ccccc2)n1-c1ccc(Br)cn1,-8.5%
10,Cc1ccccc1N1C(=O)/C(=C/c2ccc(OCc3cccc(C(=O)O)c3)cc2)C(=O)NC1=S,10.3%
11,COc1ccc(/C=C2\C(=O)C3CCN2CC3)c(OC)c1,-5%
12,CN1C(=O)C(=Cc2ccc(-c3cc(C(=O)O)ccc3Cl)o2)C(=O)N(C)C1=O,-2.5%
13,CN(C)c1ccc(/C=C/c2nc3ccccc3c(=O)n2-c2ccccn2)cc1,-67%
14,CN1C(=O)NC(=O)/C(=C/c2ccc(-c3ccccc3[N+](=O)[O-])o2)C1=O,35.6%
15,O=C(Cc1ccccc1)N1CCN(C2CC3CCC2C3)CC1 (stereo not drawn),16.4%
16,COC(=O)C(c1ccccc1)N1CCCCCC1 (stereo not drawn),5.2%
17,CCC1(C)CC(CCNCc2ccc(N(C)C)cc2)(c2ccc(C)cc2)CCO1 (stereo not drawn),-11.1%
18,O=C1NC(=O)C(=Cc2ccc(OCc3cccc(C(=O)O)c3)cc2)C(=O)N1,0.7%
19,Cc1cc(/C=C2\C(=O)NC(=S)N(c3ccccc3F)C2=O)c(C)n1C,14.1%
20,CCC(=O)N1CC(=O)Nc2ccc(C)cc2C1c1ccccc1 (stereo not drawn),-13.1%
21,CCOc1ccc(N2C(=O)NC(=O)/C(=C\c3ccc(Sc4nc5ccccc5[nH]4)o3)C2=O)cc1,16.8%
22,O=[N+]([O-])c1ccc(N2CCNCC2)cc1NCCOc1ccccc1,10.8%
23,O=C(Cc1ccccc1)N1CCN(Cc2cccnc2)CC1,9.9%
24,COc1ccc(C(c2c(O)c3ccccc3oc2=O)c2c(O)c3ccccc3oc2=O)cc1Cn1nc(C)c([N+](=O)[O-])c1C,6.5%
25,Cn1c(O)c(C=NCCN2CCN(C(=O)c3ccccc3)CC2)c(=O)n(C)c1=O,-3.2%

row,SMILES,displacement
1,c1ccc(C2CC3CC(c4ccco4)N2O3)cc1 (stereo not drawn),8.3%
2,COc1ccccc1N1C(=O)NC(=O)/C(=C\c2ccc(O)cc2)C1=O,-2.1%
3,C1CCC2CNCCN2CC1 (stereo not drawn),4.8%
4,COc1ccc(CCNCc2cccc(Cl)c2)cc1OC,-5.3%
5,CN(C)CCC(=O)c1ccc(Cl)c(Cl)c1,7.5%
6,O=c1c2ccccc2nc(/C=C\c2ccc(O)cc2)n1-c1ccc(O)cc1,17.7%
7,C=CCN1C(=O)/C(=C\c2ccc(C)o2)C(=O)NC1=S,12.6%
8,CCC(=O)N1N=C2C3CCN(CC3)C2C1c1cccc([N+](=O)[O-])c1 (stereo not drawn),-4.2%
9,CCOC(=O)c1c(NC(=O)C23CC4CC(CC(C4)C2)C3)sc2c1CCCC2,8.4%
10,CN(C)c1ccc(/C=C2\C(=O)NC(=O)N(c3ccccc3Cl)C2=O)cc1,9.7%
11,CC12CCC3C(CC=C4CC(O)CCC43C)C1C/C(=C\c1ccc(OC(F)F)cc1)C2=O (stereo not drawn),-20.9%
12,CCOC(=O)c1c(C)n(CC(C)C)c2ccc(O)cc12,1.1%
13,Cc1ccc(C)c(COc2cc(C)cc3oc(=O)c4c(c23)CCC4)c1,6.4%
14,CCC(C)N1CCN(Cc2ccccc2Br)CC1 (stereo not drawn),5.8%
15,C=CCN1C(=O)/C(=C\c2cccn2-c2ccc([N+](=O)[O-])cc2)C(=O)NC1=S,45.2%
16,O=C(COc1ccc2ccccc2c1)N1CCN(Cc2ccc([N+](=O)[O-])cc2)CC1,13.8%
17,Cc1cc(C=C2C(=O)NC(=O)NC2=O)c(C)n1C,2.4%
18,COc1ccc(-c2ccc(C=C3C(=O)NC(=S)NC3=O)o2)c([N+](=O)[O-])c1,34.1%
19,Nc1ccc(Br)cc1C(=O)c1ccc(F)cc1,-18.1%
20,N#C/C(=C\c1ccccc1)C(=O)Nc1ccc([N+](=O)[O-])cc1C(=O)c1ccccc1,-15.8%
21,Cc1ccc(-n2c(SCCN3CCOCC3)nc3ccccc3c2=O)cc1,3%
22,O=C(COc1ccccc1)N1CCN(Cc2ccc([N+](=O)[O-])cc2)CC1,4.4%
23,Cc1nc2ccccc2c(=O)n1-c1ccc(-c2ccccc2)cc1,2.1%
24,CCCCn1c(=O)c(C(=O)Nc2ccc(Br)cc2)c(O)c2ccccc21,12.4%
25,O=C(N/N=C1/CN2CCC1CC2)c1ccc(O)cc1,17.8%

row,SMILES,displacement
1,Cc1cc(C=C2C(=O)NC(=S)NC2=O)c(C)n1C,6.6%
2,C=CCSc1nc2ccccc2c(=O)n1-c1cccc(C)c1,-3.4%
3,CCCCn1c(=O)c(C(=O)Nc2cccc(O)c2)c(O)c2ccccc21,-2.3%
4,COc1cccc(CNCCc2ccccc2F)c1OC,9.6%
5,c1cc(CN2CCN(C3C4CC5CC(C4)CC3C5)CC2)ccn1 (stereo not drawn),-7.9%
6,Cc1c(Cl)c([N+](=O)[O-])nn1CC(=O)Nc1ccc(Cl)cc1C(=O)c1ccccc1,5.3%
7,CN1CCN(c2c(Cl)cccc2[N+](=O)[O-])CC1,3.8%
8,O=C1/C(=C/c2ccccc2O)N2CCC1CC2,11.6%
9,Cc1cc(C)cc(N2C(=O)NC(=O)/C(=C\c3cc(C)n(C)c3C)C2=O)c1,90.5%
10,COc1ccc(Br)cc1CN1CCN(C(C)C)CC1,-17.1%
11,Cn1cccc1CN1CCN(C(=O)COc2ccccc2)CC1,-12.3%
12,COc1ccc(CN2CCN(Cc3ccccc3Br)CC2)cc1,3.8%
13,CSc1ccc(CN2CCN(C(=O)COc3ccc(Cl)cc3)CC2)cc1,14.5%
14,O=[N+]([O-])c1ccc(NCCOc2ccccc2F)c2cccnc12,-2.1%
15,CN1C(=O)NC(=O)/C(=C/c2cc(Br)cc(Cl)c2O)C1=O,-7.2%
16,O=C1NC(=O)N(c2ccccc2)C(=O)/C1=C/c1ccoc1,15.5%
17,O=C1NC(=S)NC(=O)C1=Cc1ccccc1OS(=O)(=O)c1ccc2ccccc2c1,1.4%
18,COC(=O)c1ccc(-c2ccc(C=C3C(=O)NC(=S)NC3=O)o2)cc1,-1.1%
19,CN=C1CN=C(c2ccccc2)c2cc(Cl)ccc2N1,-5.3%
20,CCC1(CC)C(=O)NC(=O)N(C(=O)c2ccccc2Br)C1=O,11.2%
21,C1CCC2(C1)NN2CCN1NC12CCCC2 (stereo not drawn),4.1%
22,CC1CN(c2ccc([N+](=O)[O-])cc2)CCN1 (stereo not drawn),0.2%
23,COc1cccc(CN(CCc2ccc3c(c2)OCO3)Cc2cccc(OC)c2)c1,2.5%
24,Clc1ccccc1CNCCc1c[nH]c2ccccc12,2%
25,COc1ccc(CN2CCN(Cc3cccc(C)c3)CC2)cc1Br,1.1%

row,SMILES,displacement
1,Cc1nc2ccccc2c(=O)n1-c1ccccc1O,-0.7%
2,O=c1c2ccccc2nc(/C=C/c2ccccc2[N+](=O)[O-])n1-c1cccc(O)c1,-4%
3,O/N=C1/C(=C/c2ccccc2)N2CCC1CC2,10.6%
4,O=c1c2ccccc2nc(-c2ccccc2)n1-c1ccccc1Br,-9.3%
5,CCC(CC)N1CCN(Cc2cc(Br)ccc2OC)CC1,-7.5%
6,COc1ccccc1-n1c(/C=C/c2ccco2)nc2ccccc2c1=O,-36%
7,COc1ccc(N2C(=O)NC(=O)/C(=C/c3cn(CC(=O)Nc4ccccc4)c4ccccc34)C2=O)cc1,88.8%
8,CCC(C)N1CCN(Cc2cc(OC)c(OC)c(OC)c2)CC1 (stereo not drawn),-11.3%
9,Cc1ccc(N2C(=O)NC(=O)/C(=C\c3ccc(-c4ccc(Cl)c(C(=O)O)c4)o3)C2=O)cc1,6.3%
10,Cc1cccc(CN2CCN(C(=O)COc3ccc(Cl)cc3)CC2)c1,-4.6%
11,CCN(CC)CCNC(=O)CN1CCCC1=O,2%
12,Cc1ccccc1N1C(=O)NC(=O)/C(=C\c2cc(C)n(C)c2C)C1=O,12.6%
13,Cc1ccccc1C=C1C(=O)NC(=S)NC1=O,12.8%
14,CCOC(=O)CCOCC#CCN(CC)CC,1.2%
15,C=CCn1c(C)c(C=C2C(=O)NC(=S)NC2=O)c2ccccc21,29%
16,CCOc1ccc2ccccc2c1/C=C1\C(=O)NC(=S)N(c2ccccc2)C1=O,20.2%
17,O=[N+]([O-])c1ccc(NCC(O)c2ccccc2)c2ncccc12 (stereo not drawn),14.7%
18,CC(=O)C(C)Oc1cc(C)cc2oc(=O)c3c(c12)CCCC3 (stereo not drawn),-3.2%
19,O/N=C1\C2CCN(CC2)C1Cc1ccccc1O (stereo not drawn),-11.6%
20,O=c1c2ccccc2nc(/C=C/c2ccccc2[N+](=O)[O-])n1-c1ccccc1O,5.6%
21,O=c1c2ccccc2nc(-c2ccc(Cl)cc2Cl)n1-c1nccs1,-19.5%
22,O=C(CN1CCCC1=O)NCc1ccccc1,7.5%
23,O=C(COc1ccc(Cl)cc1)N1CCN(Cc2cccc3ccccc23)CC1,12.7%
